The whole screen tested about 110,000 compounds, of which about 230 (0.21%) showed an effect of 50% or more. Some of the results follow.
Molecular target: DPAP1 (Plasmodium falciparum, UniProt Q8IIJ9)
Experiment: primary screen, percent inhibition; read by cleavage of a fluorogenic dipeptide substrate; higher = more effect of the substance
Design: species or system P. falciparum D10 trophozoite lysates; single well
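Also: 30 min substrate incubation versus DMSO and 10 µM JCP410 controls.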

DPAP1, sequence (Q8IIJ9 whole entry, looked up): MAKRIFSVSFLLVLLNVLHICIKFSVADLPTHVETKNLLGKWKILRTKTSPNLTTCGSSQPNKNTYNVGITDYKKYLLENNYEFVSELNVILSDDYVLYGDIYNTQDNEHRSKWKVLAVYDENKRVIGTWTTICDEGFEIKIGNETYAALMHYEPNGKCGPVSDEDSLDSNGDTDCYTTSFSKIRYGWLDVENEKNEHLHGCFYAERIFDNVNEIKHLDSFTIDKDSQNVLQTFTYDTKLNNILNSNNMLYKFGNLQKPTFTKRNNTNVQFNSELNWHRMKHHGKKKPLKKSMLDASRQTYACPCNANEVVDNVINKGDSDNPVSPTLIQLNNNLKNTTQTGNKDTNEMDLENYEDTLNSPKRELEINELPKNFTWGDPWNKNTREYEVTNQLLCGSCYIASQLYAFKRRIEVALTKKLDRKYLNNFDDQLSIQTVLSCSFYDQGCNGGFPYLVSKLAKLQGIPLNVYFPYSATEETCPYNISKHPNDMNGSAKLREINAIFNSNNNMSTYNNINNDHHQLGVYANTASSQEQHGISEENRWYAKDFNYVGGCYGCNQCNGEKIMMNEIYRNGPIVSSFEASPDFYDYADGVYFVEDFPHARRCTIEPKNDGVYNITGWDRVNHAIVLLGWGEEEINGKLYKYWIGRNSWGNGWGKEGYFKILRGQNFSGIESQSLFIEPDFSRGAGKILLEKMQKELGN

Compared with CCOC(=O)c1c(NC(=O)c2cncc(Br)c2)sc2c1CCC2, COC(=O)c1sc2nc(C)cc(C)c2c1N is lower in “% Inhibition @ 10 uM” value: 1.58% for the first, -1.38% for the second.

Going from CCC(C)(Nc1ccccc1)c1nnnn1C(/C=C\c1ccc(Cl)cc1Cl)C(C)(C)C (centres unmarked) to CCOC(=O)C1=C(c2ccccc2)N(C)C(=O)NC1c1c(F)cccc1Cl (centres unmarked), the “% Inhibition @ 10 uM” value falls from 2.59% to 0.146%.

Going from CCCN(CCC)CCNC(=O)c1nn(C)c2c1CSc1ccccc1-2 to COCCCNC(=O)CS(=O)Cc1nc(-c2ccc(C)cc2)oc1C (centres unmarked), the “% Inhibition @ 10 uM” value falls from 1.68% to -1.05%.

Compared with C(#Cc1ccc(C#CCN2CCOCC2)cc1)CN1CCOCC1, Cc1ccc(S(=O)(=O)c2nc(-c3ccc(Cl)cc3)oc2NCCCN2CCOCC2)cc1 is higher in “% Inhibition @ 10 uM” value: -2.77% for the first, -1.43% for the second.

Compared with C/N=C1\S/C(=C/c2cc3c(cc2OC)OCO3)C(=O)N1C, COc1ccc(O)c(/C=C/C(=O)c2c(O)cc(C)oc2=O)c1 is lower in “% Inhibition @ 10 uM” value: -3.29% for the first, -4.01% for the second.

First: O=C1c2cccc3cccc(c23)C(=O)N1CC(=O)N1CCCc2ccccc21
Second: Cc1ccc(NC(=O)C(Cc2ccc([N+](=O)[O-])cc2)N2C(=O)c3ccccc3C2=O)c(O)c1 (centres unmarked)
The “% Inhibition @ 10 uM” value of the first is lower: -5.13% for the first, 0.937% for the second.

Compared with COc1cccc(-c2nn(C)c3sc(C(=O)NC4CCCCC4)cc23)c1, COc1ccc2c(CNC3CCCCCC3)c(C(=O)O)n(Cc3ccc(F)cc3)c2c1 is lower in “% Inhibition @ 10 uM” value: 1.23% for the first, -0.432% for the second.

Going from COc1cc(C2C(C#N)=C(n3cccc3)OC3=C2C(=O)CC(C)(C)C3)ccc1O (centres unmarked) to COc1ccc(C/N=C/C2=C(O)CC(C)(C)CC2=O)cc1, the “% Inhibition @ 10 uM” value falls from -1.85% to -2.5%.

Compared with COc1ccccc1CNC(=O)CCNS(=O)(=O)c1cccc2nonc12, COc1cccc(CNC(=O)Cn2sc3ccccc3c2=O)c1OC is lower in “% Inhibition @ 10 uM” value: 5.85% for the first, -8.41% for the second.

Going from CCN(CC)CCCN1C(=O)C2C3C=CC(C2C1=O)C1C2C(=O)N(CCCN(CC)CC)C(=O)C2C31 (centres unmarked) to CCCCN(CC)Cc1csc(C)c1CC, the “% Inhibition @ 10 uM” value falls from 1.05% to -3.32%.

Going from Cc1c(Cl)cccc1NS(=O)(=O)c1ccc(F)cc1 to COc1ccc(Cl)cc1NS(=O)(=O)c1cc(Cl)ccc1Cl, the “% Inhibition @ 10 uM” value rises from 2.22% to 3.47%.

Going from O=C(Cc1ccccc1)Nc1ccncc1 to CS(=O)(=O)N(CC(=O)NCc1ccncc1)c1cccc(F)c1, the “% Inhibition @ 10 uM” value rises from -3.27% to 39.3%.

Compared with Cc1ccc(NC(=O)c2cccnc2Cl)cc1Cl, Cc1ccc(C)c(S(=O)(=O)Nc2ccc(C(=O)N3CCCC3)cc2)c1 is higher in “% Inhibition @ 10 uM” value: -5.98% for the first, -4.73% for the second.

Compared with CC(C)NC(=O)C(C)n1cccc1C(=O)c1ccccc1 (centres unmarked), CC(C(=O)O)c1cc(C(=O)c2ccccc2)sc1-c1ccccc1 (centres unmarked) is higher in “% Inhibition @ 10 uM” value: 1.15% for the first, 6.08% for the second.

Compared with COc1cc(/C=C\C(=O)Nc2c3c(nn2-c2ccc(F)cc2)CS(=O)(=O)C3)cc(OC)c1OC, COc1ccc(OC)c(NC(=O)CN(c2ccc(OC)c(Cl)c2)S(C)(=O)=O)c1 is lower in “% Inhibition @ 10 uM” value: 5.07% for the first, -1.43% for the second.

Compared with CCN(CC)c1ncnc2c1c(-c1ccccc1)cn2-c1ccccc1, CCc1nc2cccnc2n1-c1ccc(CC(=O)N2CCN(Cc3ccccc3)CC2)cc1 is higher in “% Inhibition @ 10 uM” value: -1.62% for the first, 11.1% for the second.

First: CCOc1ccc(C(=O)N2CCC(Cc3ccccc3)CC2)cc1
Second: CC1CCN(S(=O)(=O)c2ccc3c(ccn3CC(=O)NCC(C)c3ccccc3)c2)CC1 (centres unmarked)
The “% Inhibition @ 10 uM” value of the first is lower: -1.04% for the first, 1.74% for the second.

Compared with CCN1CCN(C(c2cccs2)C(C)NC(=O)CC(C)C)CC1 (centres unmarked), CN1CCN(C(=O)C(c2ccccc2)c2ccccc2)CC1 is lower in “% Inhibition @ 10 uM” value: 2.34% for the first, -0.261% for the second.

First: COc1ccc(-n2c(C)cc(/C=C3/C(=N)N4OC(C)=CC4=NC3=O)c2C)cc1
Second: COc1ccc(CCNC(=O)Cc2c(C)c3cc(Cl)c(O)cc3oc2=O)cc1
The “% Inhibition @ 10 uM” value of the first is higher: 3.43% for the first, -2.57% for the second.

First: Sc1nnc(-c2ccco2)n1C1CCCCC1
Second: Cn1c2ccccc2c2cnn(CC(=O)N3CCN(C4CCCCC4)CC3)c(=O)c21
The “% Inhibition @ 10 uM” value of the first is higher: 5.75% for the first, 2.99% for the second.

First: O=C(CCn1cc(Br)cn1)N1CCN(C2C3CC4CC(C3)CC2C4)CC1 (centres unmarked)
Second: CCOc1ccc(/C=C2/SC(=O)N(CC(=O)N3CCN(c4ccccc4)CC3)C2=O)cc1OC
The “% Inhibition @ 10 uM” value of the first is higher: -3.71% for the first, -5.34% for the second.

First: O=C(O)c1ccc2c(c1)[C@@H]1C=CC[C@@H]1[C@H](c1c(F)cccc1Cl)N2
Second: COc1cccc(C2Nc3ccc(C(C)=O)cc3C3C=CCC32)c1OC (centres unmarked)
The “% Inhibition @ 10 uM” value of the first is higher: 4.83% for the first, -3.19% for the second.

First: Cc1[nH]c2ccccc2c1SCC(=O)O
Second: c1ccc2c(CCNC3CCCCCCC3)c[nH]c2c1
The “% Inhibition @ 10 uM” value of the first is higher: 3.82% for the first, -0.414% for the second.

First: COC(=O)C1=C(C)NC(=O)NC1c1ccc(Cl)cc1Cl (centres unmarked)
Second: O=C1CCCC(=O)N1c1ccc(Oc2ccc(Cl)cc2)cc1
The “% Inhibition @ 10 uM” value of the first is lower: -1.82% for the first, 0.993% for the second.

First: Cc1nnc(N2CCC(C(=O)NCCc3cccs3)CC2)c2nn(-c3ccc(Cl)cc3)c(C)c12
Second: CCc1nn(CC(=O)NCc2ccc(C)o2)c(=O)c2cc3c(OC)cccc3n12
The “% Inhibition @ 10 uM” value of the first is higher: 9.64% for the first, 4.84% for the second.

Compared with Nc1c(Cl)cc2c(c1Oc1ccccc1)C(=O)c1ccccc1C2=O, COc1ccc(/C=C2/SC(=O)N(CC(=O)Nc3ccccc3O)C2=O)cc1 is lower in “% Inhibition @ 10 uM” value: -0.233% for the first, -16.1% for the second.

First: CCOc1cc2c(cc1OCC)C(c1cc(OC)c(OC)cc1OC)NCC2 (centres unmarked)
Second: CCOC(=O)c1cc(-c2nnc(-c3ccccc3OC)o2)c(C)nc1C
The “% Inhibition @ 10 uM” value of the first is lower: -2.74% for the first, -1.47% for the second.

First: Cc1cccc(CN(CCCN(C)C)CCCN(C)C)c1
Second: CC(NC(=O)CCc1ccccc1)c1cc2c(cc1Cl)OCCO2 (centres unmarked)
The “% Inhibition @ 10 uM” value of the first is higher: 1.08% for the first, -6.92% for the second.

First: COc1ccc(-c2nc(C#N)c(N3CC(C)OC(C)C3)o2)cc1 (centres unmarked)
Second: CC1CCC(NC(=O)c2ccc(CSCc3cccc(F)c3)o2)CC1 (centres unmarked)
The “% Inhibition @ 10 uM” value of the first is higher: -3.21% for the first, -4.53% for the second.

First: CC1(C)OC(=O)C(/C=N/CCO)=C(O)O1
Second: CN1C(=O)CC(C(=O)Nc2ccc(C(=O)O)cc2)S/C1=N\c1cccc(F)c1 (centres unmarked)
The “% Inhibition @ 10 uM” value of the first is higher: 0.343% for the first, -3.78% for the second.

Compared with CCN1CCC(C#N)(NC(=O)[C@H](Cc2c(F)cccc2F)NC(=O)c2ccc(-c3cc(C(=O)O)ccc3Cl)cc2)CC1, CC(=O)CS(=O)(=O)c1ccc(-c2ccc(S(=O)(=O)CC(C)=O)cc2)cc1 is higher in “% Inhibition @ 10 uM” value: -3.48% for the first, -0.687% for the second.

Source: publication PMC6919601, “Identification of Plasmodium dipeptidyl aminopeptidase allosteric inhibitors by high throughput screening” (PLoS ONE, 2019)
